Test results: PubChem BioAssay AID1347073 (National Center for Advancing Translational Sciences (NCATS), 2019)
Screen size: about 45,000 compounds; about 200 (0.44%) were called active. Not shown: some 7% with an inconclusive outcome. Calls follow the shape of the dose curve; as a rule, active = well fitted activation curve with a large enough effect; inconclusive = small, poorly fitted or top-dose-only effect; inactive = no such curve, though single readings can be large or run the other way. This is one part of the list.

experiment: qHTS of TDP-43 Inhibitors: NCGC Sytravon Library Screen; conditions: yeast TDP-43 toxicity rescue, BacTiter-Glo growth, 24 h; series mostly up to 46.1 µM; growth rescue (activation): at the top concentration; also: 0% is about no effect; nearly all actives have a fitted effect of over 55% in size
In short: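 TDP-43-expressing yeast, pregrown in raffinose, seeded at OD600 0.02 in galactose medium with compound for 24 hr at 30 deg C. Growth read by BacTiter-Glo luminescence, so rescue of toxicity appears as activation.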

| SMILES | growth rescue (activation) |
| --- | --- |
| O=C(/C(C=Nc1ccc(Br)cc1)=C(/O)c1ccco1)C(F)(F)F | inactive: -12.4% |
| Cc1cccc(Nc2ncnc3ccc(Br)cc23)c1 | inactive: -12.3% |
| O=C(NC1CCCCC1)N(Cc1nc2ccccc2c(=O)[nH]1)C1CCCC1 | inactive: 28.3% |
| Cc1cccc(NC(=O)CSc2nnc(-c3n[nH]c4ccccc34)o2)c1 | inactive: 17.5% |
| CC1CCCCC12NC(=O)N(CC(=O)NCc1ccccc1Cl)C2=O (centres undefined) | inactive: 7.22% |
| COc1ccccc1OCc1ccc(C(=O)NCC(C)C)o1 | inactive: -6.68% |
| O=C(NC(=S)Nc1cc(C(F)(F)F)ccc1N1CCOCC1)c1ccco1 | inactive: 15.5% |
| CCC(=O)Nc1nonc1-c1nc2ccccc2n1Cc1ccc(Cl)c(Cl)c1 | inactive: 9% |
| CC1CC1c1ccc(/C=C(\C#N)C(=O)Nc2cccc(Cl)c2Cl)o1 (centres undefined) | inactive: 15.3% |
| CC(C)(C)C(=O)Nc1nnc(SCC(=O)NC2CC2)s1 | inactive: 1.18% |
| O=C(COC(=O)c1cc(=O)[nH]c2ccccc12)NC(=O)NC1CCCCC1 | inactive: 31.6% |
| COc1ccccc1NC(=O)CN1CCN(c2ccc(F)cc2)CC1 | inactive: -8.31% |
| Cc1cc(NC(=O)CON=C(N)CC(=O)Nc2ccccc2Cl)ccc1Br | inactive: 2.35% |
| COc1ccc(CNC(=O)COC(=O)/C=C/c2cccc(Br)c2)cc1 | inactive: 7.61% |
| C=CCN=C1S/C(=C\c2ccc(Cl)cc2)C(=O)N1CC=C | inactive: 32% |
| COc1ccc(NC(=O)C2CCN(S(=O)(=O)c3cccc4nonc34)CC2)cc1 | inactive: 6.43% |
| CCN(CC)CCN1C(=O)C(=O)/C(=C(/O)c2c(C)[nH]c(C(=O)OC)c2C)C1c1ccccc1OC (centres undefined) | inactive: 3.42% |
| CCOC(=O)C1CCN(C(=O)c2ccccc2NS(=O)(=O)c2cc(C)ccc2C)CC1 | inactive: 7.01% |
| CCOc1ccc(N=CNc2ccc(OCC)cc2)cc1 | inactive: 4.18% |
| COc1ccc2c(c1)CCc1sc(NC(=O)c3ccc(Cl)cc3)nc1-2 | inactive: 19% |
| OC(c1ccc(F)c(F)c1)c1nc(-c2ccc(F)c(Cl)c2)cs1 (centres undefined) | inactive: -91.9% |
| COc1cccc(/C=C/C(=O)N2CC(C)OC(C)C2)c1OC (centres undefined) | inactive: 4.98% |
| O=C(O)CCCN1C(=O)/C(=C\c2ccccc2OCc2ccccc2)SC1=S | inactive: -10.9% |
| Cc1cc(C2=NNC(=NC3CC3)SC2)c(C)n1Cc1ccco1 | inactive: 6.93% |
| CC(C)Oc1ccc(C(=O)Nc2nc3ccccc3[nH]2)cc1 | inactive: -19% |
| CCCCNC(=O)C1(C)CCN1C(=O)c1ccccc1Br (centres undefined) | inactive: 7.32% |
| CCN(CC)S(=O)(=O)N1CCC(C(=O)NCc2ccco2)CC1 | inactive: -7.88% |

| SMILES | growth rescue (activation) |
| --- | --- |
| O=[N+]([O-])c1cc(S(=O)(=O)O)cc([N+](=O)[O-])c1NN(c1ccccc1)c1ccccc1 | inactive: -3.15% |
| Cc1cc(N2C(=O)C3C4CCC(C4)C3C2=O)no1 (centres undefined) | inactive: -7.31% |
| CC(C)c1ccccc1NC(=O)CCCC(=O)O | inactive: 21.1% |
| CCc1ccc(N(CC(=O)Nc2ccc(OC)cc2OC)S(C)(=O)=O)cc1 | inactive: -16.7% |
| CN(C)c1ccc(/C=C(\NC(=O)c2ccccc2)C(=O)NCCCn2ccnc2)cc1 | inactive: 2.19% |
| CCCCn1c(=O)[nH]c(=O)c2c1nc(-c1ccc(OC)c(Br)c1)n2CC(C)C | inactive: 21% |
| COC(=O)c1ccc(NC(=O)CCc2c(C)nc3c(c(C)nn3-c3ccc(C)cc3)c2C)cc1 | inactive: 1.86% |
| Cc1nnc(NN)n(N)c1=O | inactive: 3.69% |
| CCCCN(C=O)c1c(CC)nc2ccc(C(=O)N(CC)CCN(C)C)cn12 | inactive: -0.931% |
| NC(=O)COC(=O)CNC(=O)c1sc2ccccc2c1Cl | inactive: 7.32% |
| CCOc1ccc(Br)cc1S(=O)(=O)Nc1ccc(NC(=O)c2ccccc2F)cc1 | inactive: 18% |
| CCN(CC)S(=O)(=O)c1cc(C(=O)OCC(=O)NC(=O)c2cccn2C)ccc1C | inactive: 3.12% |
| Cn1c(=O)c2cc(NC(=O)NCCc3ccccc3)ccc2n1Cc1cccc(C(F)(F)F)c1 | inactive: 9.27% |
| Cc1cc(N/N=C(/CCC(=O)O)C(=O)O)nc2ccccc12 | inactive: 2.29% |
| NNC(=O)c1ccc(COCC(F)(F)C(F)F)cc1 | inactive: -0.776% |
| O=C(COC(=O)/C=C/c1ccccc1[N+](=O)[O-])Nc1ccc(S(=O)(=O)N2CCOCC2)cc1 | inactive: 10.1% |
| CCCCN(C=O)c1c(CC)nc2ccc(C(=O)NCCCN3CCCC3=O)cn12 | inactive: 7.4% |
| CCOc1ncccc1C(=O)OCc1ccccc1 | inactive: 9.57% |
| CC(=O)c1sc2nc(-c3ccco3)ccc2c1N | inactive: -17.3% |
| COC(=O)c1ccc(C2C(C(C)=O)=C(O)C(=O)N2CCO)cc1 (centres undefined) | inactive: -6.83% |
| COc1ccc(S(=O)(=O)c2c(O)cc(C)c(NS(=O)(=O)c3ccccc3)c2C)cc1 | inactive: 7.73% |
| O=c1c(Cc2ccc(Cl)cc2)c(O)ccn1Cc1cccs1 | inactive: -3.42% |
| CN(Cc1ccccc1)C(=O)c1ccc2c(c1)NC(=O)C(N1CCOCC1)S2 (centres undefined) | inactive: 27.4% |
| Cc1c(NS(=O)(=O)c2ccc3c(c2)c(=O)n(C)c(=O)n3C)c(=O)n(-c2ccccc2)n1C | inactive: 17% |
| O=C(NCC(=O)N1CC=C(c2ccccc2)CC1)c1ccc(F)cc1 | inactive: 12% |
| Cc1sc(NC(=O)CN2CCCC2)nc1-c1ccc2c(c1)CCN2C(=O)c1cccc(F)c1 | inactive: 8.85% |
| COc1cc(C(=O)NCCOC(=O)c2cccc(N(C)C)c2)cc(OC)c1OC | inactive: 19.1% |
